# Laboratory results: the supplement of paper PMC8728848
# The other results are listed elsewhere or left out.
# B1: rCnSL-proA (Clitocybe nebularis) (protein)
# chain: AAFFSLVVLLALLPFGIHASALPSTELTPRVNPNLPGPNDVFVGFRGTNNIVGAIYEKDGIKDTPLNNGADAEMGPGSYITDGLFTARIFASGSAGNNPGTTATVCKIYASGVQWRGAPKGYIPVAYFGNGPTAEQRRQTYLRTLGLPGTAIRFGNLNTNPGQGPTAPRQMVVPPGPLRSLLKASCFPAADTRLPQTLHYFEKRVDWNIITAADSQTWGH
# Columns and labels:
# Experiment in all cases: glycan array binding signal (z-score within array); higher = stronger binding
# Details in all cases: glycan notation: IUPAC condensed, linker removed
# [1] = molecular target: Gal(b1-4)Glc
# In short: (§1)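 Arrays were curated from the Consortium for Functional Glycomics database, 3228 in total, and kept only where the protein sequence was available. Binding is expressed as a within-array Z-score. This score was averaged across arrays of the same protein sequence at different concentrations or buffers and across linkers, and negative values can be read as non-binding.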
# [2] = molecular target: Gal(b1-4)Glc6S
# In short: as §1
# [3] = molecular target: Gal(b1-4)GlcNAc
# In short: as §1
# [4] = molecular target: Gal(b1-4)GlcNAc(a1-6)Gal(b1-4)GlcNAc
# In short: as §1
# [5] = molecular target: Gal(b1-4)GlcNAc(b1-2)Man
# In short: as §1
# [6] = molecular target: Gal(b1-4)GlcNAc(b1-2)Man(a1-3)Man(b1-4)GlcNAc(b1-4)GlcNAc
# In short: as §1
# [7] = molecular target: Gal(b1-4)GlcNAc(b1-2)Man(a1-3)[Gal(b1-4)GlcNAc(b1-2)Man(a1-6)]Man(b1-4)GlcNAc(b1-4)GlcNAc
# In short: as §1
# [8] = molecular target: Gal(b1-4)GlcNAc(b1-2)Man(a1-3)[Gal(b1-4)GlcNAc(b1-2)Man(a1-6)]Man(b1-4)GlcNAc(b1-4)[Fuc(a1-6)]GlcNAc
# In short: as §1
# [9] = molecular target: Gal(b1-4)GlcNAc(b1-2)Man(a1-3)[Gal(b1-4)GlcNAc(b1-2)Man(a1-6)][Gal(b1-4)GlcNAc(b1-4)]Man(b1-4)GlcNAc(b1-4)[Fuc(a1-6)]GlcNAc
# In short: as §1
# [10] = molecular target: Gal(b1-4)GlcNAc(b1-2)Man(a1-3)[Gal(b1-4)GlcNAc(b1-2)Man(a1-6)][GlcNAc(b1-4)]Man(b1-4)GlcNAc(b1-4)[Fuc(a1-6)]GlcNAc
# In short: as §1
# [11] = molecular target: Gal(b1-4)GlcNAc(b1-2)Man(a1-3)[GlcNAc(b1-2)Man(a1-6)]Man(b1-4)GlcNAc(b1-4)GlcNAc
# In short: as §1
# [12] = molecular target: Gal(b1-4)GlcNAc(b1-2)Man(a1-3)[GlcNAc(b1-4)][Gal(b1-4)GlcNAc(b1-2)Man(a1-6)]Man(b1-4)GlcNAc(b1-4)GlcNAc
# In short: as §1
# [13] = molecular target: Gal(b1-4)GlcNAc(b1-2)Man(a1-3)[Man(a1-6)]Man(b1-4)GlcNAc(b1-4)GlcNAc
# In short: as §1
# [14] = molecular target: Gal(b1-4)GlcNAc(b1-2)Man(a1-6)Man(b1-4)GlcNAc(b1-4)GlcNAc
# In short: as §1
# [15] = molecular target: Gal(b1-4)GlcNAc(b1-2)Man(a1-6)[GlcNAc(b1-2)Man(a1-3)]Man(b1-4)GlcNAc(b1-4)GlcNAc
# In short: as §1
# [16] = molecular target: Gal(b1-4)GlcNAc(b1-2)Man(a1-6)[Man(a1-3)]Man(b1-4)GlcNAc(b1-4)GlcNAc
# In short: as §1
# [17] = molecular target: Gal(b1-4)GlcNAc(b1-2)[Gal(b1-4)GlcNAc(b1-4)]Man(a1-3)[Gal(b1-4)GlcNAc(b1-2)Man(a1-6)]Man(b1-4)GlcNAc(b1-4)GlcNAc
# In short: as §1
# [18] = molecular target: Gal(b1-4)GlcNAc(b1-2)[Gal(b1-4)GlcNAc(b1-4)]Man(a1-3)[Gal(b1-4)GlcNAc(b1-2)[Gal(b1-4)GlcNAc(b1-6)]Man(a1-6)]Man(b1-4)GlcNAc(b1-4)GlcNAc
# In short: as §1
# [19] = molecular target: Gal(b1-4)GlcNAc(b1-2)[Gal(b1-4)GlcNAc(b1-4)]Man(a1-3)[GlcNAc(b1-4)][Gal(b1-4)GlcNAc(b1-2)Man(a1-6)]Man(b1-4)GlcNAc(b1-4)GlcNAc
# In short: as §1
# [20] = molecular target: Gal(b1-4)GlcNAc(b1-2)[Gal(b1-4)GlcNAc(b1-4)]Man(a1-3)[GlcNAc(b1-4)][Gal(b1-4)GlcNAc(b1-2)[Gal(b1-4)GlcNAc(b1-6)]Man(a1-6)]Man(b1-4)GlcNAc(b1-4)GlcNAc
# In short: as §1
# [21] = molecular target: Gal(b1-4)GlcNAc(b1-2)[Gal(b1-4)GlcNAc(b1-6)]Man(a1-6)[Gal(b1-4)GlcNAc(b1-2)Man(a1-3)]Man(b1-4)GlcNAc(b1-4)GlcNAc
# In short: as §1
# [22] = molecular target: Gal(b1-4)GlcNAc(b1-2)[Gal(b1-4)GlcNAc(b1-6)]Man(a1-6)[Gal(b1-4)GlcNAc(b1-2)Man(a1-3)]Man(b1-4)GlcNAc(b1-4)[Fuc(a1-6)]GlcNAc
# In short: as §1
binder,measurement,setting,value
B1,glycan array binding signal (z-score),[1],0.103
same,glycan array binding signal (z-score),[2],-0.424
same,glycan array binding signal (z-score),[3],-0.22
same,glycan array binding signal (z-score),[4],3.94
same,glycan array binding signal (z-score),[5],-0.205
same,glycan array binding signal (z-score),[6],0.14
same,glycan array binding signal (z-score),[7],0.004
same,glycan array binding signal (z-score),[8],0.559
same,glycan array binding signal (z-score),[9],0.197
same,glycan array binding signal (z-score),[10],-0.263
same,glycan array binding signal (z-score),[11],-0.932
same,glycan array binding signal (z-score),[12],-0.267
same,glycan array binding signal (z-score),[13],-0.19
same,glycan array binding signal (z-score),[14],-0.194
same,glycan array binding signal (z-score),[15],-0.518
same,glycan array binding signal (z-score),[16],-0.587
same,glycan array binding signal (z-score),[17],0.465
same,glycan array binding signal (z-score),[18],2.99
same,glycan array binding signal (z-score),[19],0.523
same,glycan array binding signal (z-score),[20],1.02
same,glycan array binding signal (z-score),[21],2.07
same,glycan array binding signal (z-score),[22],3.41
